Over roughly 4,500 sequences, “median log2 fold change of GCK-ALFA target abundance (FLAG IP / Myc IP barcode read proportion)” has its median near 0.078; the lowest 2% begin near -0.6. The list shows a part of the results.
B1: GBRAP_52_6040 (protein)
chain: MRERMRRLAREIVELVRAGRLEEARERIRELVETLSLEELELLGEELAELAREAEPEDLDAVMEVALMLADELEKAGYPEVFADDLEARVARAAVENLER
B2: GBRAP_95_7023 (protein)
chain: EDDELALQSAQEVLEALLELGDEEAARRAARRAAELALKVPASAVLKDLSLEGRVAIVREAAENFSREDTERIAEKLIAVAEKEEDKEAIREALEKALAE
B3: GBRAP_128_3293 (protein)
chain: SAAALRAAYRARLEALLGLTPEELRAATLALIDEAVAQGLEAVELFVEALEELLPKFTVEQLEAIAEALDEARERVDPETAALLADAASDALLEAEEKEE
B4: GBRAP_128_3213 (protein)
chain: SVEEVREEVRRLLEEISEADEEEAEEIAEELAELVANSSVEEAEAAREVIEELAPELSEEELEILMEAFERQARKLSDERSLVLLDIAIILGSEIIEKEE
B5: GBRAP_52_6097 (protein)
chain: SEAEIRAYAEALVAAARAGDVDAATAILLEAIARFSDEEVLAMLDLAAQLMAQLPADERERATDVMIEALDRAADETGKEELMDIAEARVAAIAYQALQA
B6: GBRAP_122_2955 (protein)
chain: SKEEEVERLVEETVEAAKKGDFAATILEALKEAAERFDAESLIRLAERLAERARELGKEAEAALAFATAAQWLLEERPELAEAADRLLELADELLDLLEE
B7: GBRAP_18_5401 (protein)
chain: APSPFEQAWAALSEEAQDLVAKAIGDALSSEDDEERIDILVDTLVELAARLSPEEVYNAMYLLLSSVLSRMEEAREVADRFIARVPERRAEAERVLADLE
B8: GBRAP_39_5719 (protein)
chain: EEEEEAENIFSYYEAVGAKKMYERGISLDELFAELYARARELAADDPELAAALDELRALAEAAGDEAKLAAAGLMSRLVEGEPREEILADAEKLIAYLKS
B9: GBRAP_14_3804 (protein)
chain: SEEKKKAIEDTVEEAIELIKEILKDVPQEVREKVIELVEEAKKKIIEENLNPDEIDELTKETIKKVEEILKDVPQEVRDKVIAVIATEFGVLILEVEELE
B10: GBRAP_52_6184 (protein)
chain: MREELREKVLEILELVKEGKLEEARKLAKELVESISEEEAKLLVEVMAEVTRELPVEELDDAFKMAEIIAEEMEEAGFDEVLAEDLLAAVARAMYEKELA
B11: GBRAP_160_4501 (protein)
chain: MEKVEEAIKEIEEEAELAIEAMKEVSDEDAVKIFRAYAGDVIEYLREEAKISEETEEKLEEIEDELVEEMKSIKNLTDEQIEEIVERYREEFIELLKEEA
B12: GBRAP_160_4587 (protein)
chain: EESIKKLKEIVEEELEEAKEDIKGESAEQRATIVLGAGGEIAMELSEIPEASDELIDKVLEITDEAAEYILSNPNITDEELEKLIEEAEKKMKEAIKESM
B13: GBRAP_11_2859 (protein)
chain: LKEKLKEAAELARKAVKALEELLKKGVDDEELRKEIEKLLEELLKLAKEYGDKDEIKLAEIALEDFKEAQKDPERAEEHLQRALAALRVLEGNLLLRIDE
B14: GBRAP_83_6979 (protein)
chain: KEKIVVAAPADRIDEAVEIAIDLHKEEGKEVELEIIVTPEDIDRVLEGIERLIKEIKNVEIRILGVGMTEEQAEELEKRIKEIAKKNGANPKIEVYLEEP
B15: GBRAP_9_7145 (protein)
chain: REEMIKKIREVIEDMFEEVKEVVPEEVKPLVEKLTKEALERFDKVVKDKSKTEEEIRDEAIELIDEFAKTVKAKVSPEIAKIVEAIALTAKLEIEEIYEE
B16: GBRAP_52_6241 (protein)
chain: MREEMRRIAEEALEKVKAGDLEGARKIFKEVAETWNDEEIEIFIDEFAELAAKARKEDIDDVWKLTEIAAEALEEAGKPDILVDDLEAKTAAALVKVEAK
B17: GBRAP_160_4568 (protein)
chain: MERVEEFLRELREDVEETLERTRDDSVANIRTAVVGTVGAHAMEAAEDPAFSDEMVDAILDAGDRIAAALDALADASYEEIRATVLAIIDDLAARVLALA
B18: GBRAP_160_4637 (protein)
chain: SPAAADLKALIDEYTAFALEEVDAGDIEGALATLRMMVGDLVLAAEESPDFSEEDVDALDALGRAHVERFEANRDASPEELKALIEEGAAELKALVEEFA
B19: GBRAP_184_5137 (protein)
chain: MLLRRAIEAETPEEAIAGAREALEEARAAGAALLLSIELEGLSPEEVAEVARAVRALAEELGLEDVTVILEVEADEEEADIVIKAADEAGVRVVVALLEE
B20: GBRAP_125_3001 (protein)
chain: SKEELAADMREIALAVGFPESLAELLAQEVLAGSVKGALAAFALALGDEELAELIDQLTEEEAAAVVRELAAYAREKGPISEEEAAAKGRELAEAALAKR
B21: GBRAP_11_2665 (protein)
chain: KKEVYEKAAKLARELAELVKKLIEEGIDNEKLREEAEKALKELEELAKKYLDEADKKDVEVLKEIWEEALKNKENRLEYWEQLLAAARVLEGNFLLKADE
B22: GBRAP_11_2727 (protein)
chain: KKEELKKLAEEAEKLAEEIEKLIKEGPTLEELKKLLERARELARRAKEIGADESIVEDLEIAAEELEEAIKNPENTLEHLKNALAAARVAAGNLLLELEE
B23: GBRAP_125_3011 (protein)
chain: ALAEAVAALEALAARLGLSADEVAELGEQARAHGVKQALIALFLAEGWEENAELAAKLTEAEAAAALARLVARLAANPDLTPEEVKALAREILEEVVAAS
B24: GBRAP_128_3465 (protein)
chain: STEEAVAYTRETLEKIKKADLETARKLFEELAERLATLSLEEVEAVVEEILKHLPELTAEKLEILAEVFSKALPKFTPEKRALVAEVISAALLQAEELEE
B25: GBRAP_11_2748 (protein)
chain: KKEKLKEIAKAAEELAALLDKLIAEGVDNAELQAAAEKALKELAELVEKYGDESLKKLVAIIQEEFAQAKADPATAEAHWRNALAAARVLAGQVLLEIEE
B26: GBRAP_125_3090 (protein)
chain: EEEQLAEDLRLLALALGFSEEDAEEAARIARASSVKGTLYAIFAAEGEEELAELVEKLTEEEAAEVLKRLAAYLKANPDLSKEEVVEKAKELVKEALAAR
B27: GBRAP_184_5024 (protein)
chain: KVIEEEIEAENLEELKEKLAALREKVKGSGATLIVSVDLKNPTEEMVKTLITGLGAMKKAGDVSDVTIGFNNELSEELIDVALKTGDEEGVKVVLAISEE
B28: GBRAP_128_3517 (protein)
chain: SMAAAVARVDELMARIREASPEEAARLTREIAALLAAADPETREAMVARFEELLPELSREHLLTVADTLRELRPGADPYTANLLAGVEVAALNEAEELEE
B29: GBRAP_11_2905 (protein)
chain: KKEELKKAAELAREAAKLLKELQKKGAKDKELWKKAKEALKKLEELVKKYLDESDVELAKYALELLEKAQKDPEKAQQYLDEALATTRVLEGQILLEIEE

biological target: GABARAP, O95166; assay: median log2 fold change of GCK-ALFA target abundance (FLAG IP / Myc IP barcode read proportion) (log2 ratio); each designed protein is fused to an ALFA-tag nanobody in HEK293 cells to bring the named protein to FLAG-tagged glucokinase (GCK); Myc marks an untargeted standard; higher = target protein stabilised (more abundant); conditions: target protein: 3xFLAG-MCP-GCK-ALFA reporter; HEK293 landing pad (RPLP)
Sequence (O95166 whole entry, the tested form may be a part): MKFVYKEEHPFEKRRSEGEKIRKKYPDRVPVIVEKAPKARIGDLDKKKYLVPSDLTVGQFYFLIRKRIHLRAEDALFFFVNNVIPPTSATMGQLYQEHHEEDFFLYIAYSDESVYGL
How it was run: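 Binders fused to an ALFA nanobody were recombined as a library into HEK293 landing-pad cells, which were induced with 2 μg mL^−1 doxycycline and then transfected to express a FLAG-tagged target and a Myc-tagged standard. After 48 h, circular RNA barcodes recovered by anti-FLAG and anti-Myc immunoprecipitation of lysates were reverse transcribed, amplified and sequenced. Each binder's target abundance is the median log2 ratio of FLAG to Myc barcode read proportions, from barcodes present at ≥10^−7 in both replicates, binders carrying ≥3 barcodes per replicate, a 10^−6 pseudocount and pooled replicates.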

Binder | median log2 fold change
B1 | -0.365
B2 | 0.302
B3 | 0.0324
B4 | -0.403
B5 | -0.0573
B6 | -0.119
B7 | 0.00546
B8 | 0.194
B9 | 0.173
B10 | -0.0301
B11 | -0.0957
B12 | -0.0805
B13 | 0.415
B14 | 0.0981
B15 | 0.154
B16 | 0.081
B17 | 0.154
B18 | -0.0635
B19 | 0.0237
B20 | 0.0611
B21 | 0.223
B22 | 0.292
B23 | 0.201
B24 | 0.246
B25 | 0.194
B26 | 0.188
B27 | -0.095
B28 | 0.198
B29 | 0.266

— the supplement of paper PMC12632987
